Data on 108 molecules can be found in PubChem BioAssay AID1240 (Sanford-Burnham Center for Chemical Genomics, 2008).

In all, about 50,000 compounds went through this assay and about 800 (1.6%) showed an effect of 50% or more. This is one part of the list.

This assay deals with Bcl-2-like protein 10 (Homo sapiens) (UniProt Q9HD36). Briefly: TR3 peptide-Bcl-B binding displacers, biochemical primary FP assay, phenotype converters (AID 1240).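 Further: 0% = Bcl-B with tracer peptide and DMSO and 100% = tracer peptide lacking Bcl-B.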 The settings on record: GST-Bcl-B / FITC-TR3 peptide fluorescence polarization; stronger effect = higher value; compound at 3.75 mg/L.
UniProt Q9HD36, sequence (Q9HD36 whole entry, looked up): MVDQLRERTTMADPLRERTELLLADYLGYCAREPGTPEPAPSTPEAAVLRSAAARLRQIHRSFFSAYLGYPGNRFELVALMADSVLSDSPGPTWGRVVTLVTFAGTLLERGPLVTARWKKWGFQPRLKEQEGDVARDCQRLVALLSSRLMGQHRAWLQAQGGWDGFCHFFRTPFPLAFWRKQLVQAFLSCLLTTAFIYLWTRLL
For the molecule `O=C1/C(=C/c2ccc(-c3cc(Cl)ccc3Cl)o2)SC(=S)N1Cc1ccco1`, the displacement amounted to 14.1%.
With `O=C(O)CCCCCN1C(=O)/C(=C/c2ccc(O)c(O)c2)SC1=S`, the displacement is -107%.
Regarding `CCc1cc(=O)oc2cc(OCc3cccc(C)c3)ccc12`, the displacement stood at 2.5%.
For the molecule `O=[N+]([O-])c1cc([N+](=O)[O-])c2cccnc2c1Sc1nc2ccccc2s1`, the displacement turned out to be 2.8%.
Take `Cc1ccc(NC(=O)COc2ccc3ccccc3c2)cc1Cl`: the displacement is -13.1%.
In the case of `CC(C)c1ccc(OCCOc2ncnc3ccccc23)cc1`, the displacement came to 15%.
On to `O=C(Nc1ccc2ccccc2c1)c1ccc2c(c1)C(=O)N(N1C(=O)c3ccccc3C1=O)C2=O`, for which the displacement was 14.6%.
As to `O=C1C=CC(=O)N1c1ccc([N+](=O)[O-])cc1Br`, the displacement was 9.4%.
The value for `COC(=O)c1c(-c2cccc(C)c2)csc1N` was 2.8%.
Take `O=[N+]([O-])c1ccc(COc2ccccc2/C=N/Nc2nc3ccccc3s2)cc1`: the displacement was -2.1%.
Regarding `COC(=O)c1ccc(C(=O)Nc2cc(Cl)ccc2Cl)cc1NC(=O)c1ccccc1C`, the displacement was determined as 5.6%.
`CC1(C)CC(Cc2ccccc2)(C(CN)CO)CCO1` (stereo not drawn): the displacement is -6.7%.
In the case of `CCc1ccc2oc(-c3cccc(NC(=O)c4cccc(C)c4)c3)nc2c1`, the displacement is -1.3%.
For `Cc1cccc(OCCCN2CCCC2)c1`, the displacement is -6.5%.
As to `O=C(N/N=C/c1ccc[nH]1)c1ccccn1`, the displacement was -11.5%.
`Cc1cccc(NC(=O)CCCN2C(=O)c3cccc4cccc(c34)C2=O)n1`: the displacement worked out at 0.6%.
The value for `Nc1nnc(/C=C/c2ccccc2Cl)s1` was 0.8%; that for `CCOc1c(Br)cc(/C=C2/C(=O)N(c3ccc(Cl)c(C(=O)O)c3)N=C2C)cc1OC` was 10.1%.
Take `O=C(NC=C(Cl)Cl)c1ccc(Cl)cc1`: the displacement worked out at 13.5%.
The value for `Cc1c(NC(=O)c2ccc(I)o2)cccc1-c1nc2ccccc2s1` was 15.4%; that for `OC(COc1ccc(C23CC4CC(CC(C4)C2)C3)cc1)CN1CCN(c2ccccn2)CC1` (stereo not drawn) was -5.7%; that for `CC(C)C1=NN2C(=N)/C(=C/c3ccccc3OCc3ccc(F)cc3)C(=O)N=C2S1` was -6.7%.
Turning to `O=C(Nc1sc2c(c1C(=O)N1CCCCC1)CCCC2)c1ccccc1F`, the displacement was -4.7%.
Consider `C[n+]1cccc(C(=O)NCCO)c1`, for which the displacement was found to be 1.6%.
With `CCOc1ccc(C(=O)Nc2cc(Cl)cc(Cl)c2)cc1Br`, the displacement was found to be 12.9%.
Take `CC1(C)C(=O)N(Cc2ccc([N+](=O)[O-])cc2)c2ccccc2N1C(=O)c1ccc(F)cc1`: the displacement was -1%.
The value for `O=C(Nc1ccc(Nc2ccccc2)cc1)c1cccc2ccccc12` was 14.1%; that for `O=C(Nc1c(C(=O)NCc2ccco2)cnn1-c1ccccc1)c1cccc(F)c1` was 1.4%.
Take `O=[N+]([O-])c1ccc(OCCN2CCCCC2)cc1`: the displacement turned out to be 6.5%.
With `CCOC(=O)C1=C(O)/C(=C/c2ccc(Br)cc2)SC1=Nc1ccc([N+](=O)[O-])cc1`, the displacement was determined as 15%.
Regarding `COc1ccc(-n2c(C)c([N+](=O)[O-])c3ccc(OC(C)=O)c(COC(C)=O)c32)cc1`, the displacement was -1.1%.
On to `CC(/C=N/NC(=O)C1CC1)c1ccccc1` (stereo not drawn), for which the displacement is 7.7%.
The same measure for `COc1cccc(/C=C/c2cc(C(F)(F)F)[nH]c(=O)n2)c1OC`: 121%; for `COc1ccc(/C=C(\NC(=O)c2ccccc2)C(=O)N/N=C/c2ccncc2)cc1`: -0.2%.
With `COC(=O)c1cc(NC(=O)c2ccc(-c3ccc(Cl)cc3)o2)cc(C(=O)OC)c1`, the displacement is 20%.
On to `CC(C)CN1C(=O)c2ccc(C(=O)NN3C(=O)c4ccccc4C3=O)cc2C1=O`, for which the displacement is -19.4%.
The same measure for `Cc1ccc2nc(-c3cc(N)ccc3Cl)oc2c1`: -4.5%; for `O=C1C2C3C=CC(C2C(=O)N1Cc1ccccc1)C1C(=O)N(Cc2ccccc2)C(=O)C31` (stereo not drawn): 24.4%.
The same measure for `C=CCNc1nc(-c2ccncc2)cs1`: -3.2%; for `COc1ccc2nc(NS(=O)(=O)c3ccc(Cl)cc3)c(Nc3cccc(NC(C)=O)c3)nc2c1`: -2.9%.
Turning to `O=Cc1ccccc1OC(=O)c1cc2ccccc2oc1=O`, the displacement was -6.4%.
Consider `O=C(NCCN1CCCCC1)c1cc(Cl)ccc1Cl`, for which the displacement is -9.6%.
As for `CN(C)c1ccc(/C=C(\C#N)C(=O)NCC2CCCO2)cc1` (stereo not drawn), the displacement was -19.4%.
Turning to `CCOC(=O)C1=C(C)N=C2SCCN2C1c1ccccc1` (stereo not drawn), the displacement is -10.4%.
The same measure for `CCOC(=O)N1CCN(C(=O)c2ccc(I)cc2)CC1`: 9.7%; for `Cc1c(Cc2ccccc2)sc(NC(=O)c2ccc(-c3ccccc3)cc2)c1C(N)=O`: -1.3%; for `Cc1cc(OCC(=O)Nc2c(C)cccc2C)ccc1Cl`: 5.8%.
For the molecule `COc1ccc2c(c1OC)C(=O)OC2Nc1ccc(C)cc1` (stereo not drawn), the displacement is 5.4%.
In the case of `COc1cc(OC)cc(C(=O)NNC(=O)c2ccccc2OC)c1`, the displacement was -5.7%.
Take `O=C(COc1ccc(Br)cc1)Nc1cc(Cl)c(Cl)cc1Cl`: the displacement stood at 7.6%.
With `N#CC1=C(N)C(C#N)(C#N)C(c2cccc(Br)c2)C=C1C1CC1` (stereo not drawn), the displacement was -1.9%.
`COc1ccc(C2/C(=C(/O)c3ccccc3)C(=O)C(=O)N2c2cc(C(C)(C)C)on2)cc1OC` (stereo not drawn): the displacement is -10.8%.
Consider `CC(C)COCC1CC2(CC(C)C(=O)CC2=O)C(=O)O1` (stereo not drawn), for which the displacement was -2.6%.
In the case of `CCn1c2ccccc2c2nnc(SCC(=O)Nc3ccc([N+](=O)[O-])cc3)nc21`, the displacement was -1.5%.
In the case of `CCOc1ccccc1N(CC(=O)NCCOC)S(=O)(=O)c1ccccc1`, the displacement was -4.5%.
For the molecule `CCc1cc2c(C)cc(=O)oc2cc1O`, the displacement is -22.5%.
The same measure for `COc1ccc(N2C(=O)CC(N3CCN(Cc4ccc5c(c4)OCO5)CC3)C2=O)cc1` (stereo not drawn): -5.3%.
For `Cc1ccccc1N1C(=O)c2cccc3c(N(C)CCO)ccc(c23)C1=O`, the displacement amounted to 13.9%.
For `O=C(Nc1ccc(-c2ccc(NC(=O)c3ccccc3)cc2)cc1)c1ccccc1`, the displacement was 6.7%.
As for `O=C1CC(c2ccc(Cl)cc2)CC2=C1C(c1ccccc1[N+](=O)[O-])Nc1ccccc1N2` (stereo not drawn), the displacement worked out at 14.1%.
The same measure for `COc1ccc2oc(=O)c(C(=O)NCCc3ccccc3)cc2c1`: 10.6%.
On to `CN(N)c1nc(N2CCCC2)nc(N2CCCC2)n1`, for which the displacement is 7.2%.
Regarding `CCOC(=O)c1sc(NC(=O)c2cc3n(n2)C(C(F)(F)F)CC(c2cccs2)N3)c(C(=O)OCC)c1C` (stereo not drawn), the displacement is 7.2%.
Regarding `Cc1ccc(-n2nc3cc(C)c(NC(=O)/C=C\c4ccco4)cc3n2)cc1`, the displacement came to 20%.
In the case of `CC(C)(C)NC(=O)c1nn2c(c1Br)NC(c1ccccc1)CC2C(F)(F)F` (stereo not drawn), the displacement turned out to be 1.7%.
Turning to `O=C(NC(C(Cl)(Cl)Cl)S(=O)(=O)c1ccccc1)c1ccccc1` (stereo not drawn), the displacement amounted to 9.8%.
For `O=C(CSc1nc2ccc(N3C(=O)c4ccccc4C3=O)cc2s1)NCCOc1ccc(Cl)cc1`, the displacement was 1.9%.
The same measure for `CCOC(=O)C1=C(C)N=c2s/c(=C\c3ccccc3Cl)c(=O)n2C1c1ccc(OC)c(OC)c1` (stereo not drawn): 106%; for `COC(=O)CN1C(=O)/C(=C/c2ccccn2)SC1=S`: 10.9%.
The same measure for `Cc1ccc(-c2nc3ccccc3c(=O)[nH]2)cc1`: 3.3%; for `O=C(/C=C/c1ccc(Cl)cc1)Nc1cccc2ccccc12`: 13.7%.
In the case of `COc1ccc(-c2nc(SCC(=O)c3ccccc3)n[nH]2)cc1`, the displacement was -13.8%.
For `CCOC(=O)CSc1nnnn1-c1ccccc1F`, the displacement is -13.6%.
The value for `CCOc1ccc(C2Nc3cccc4cccc(c34)N2)cc1OC` was 5.5%; that for `CCOc1ccc(C2/C(=C(\O)c3ccccc3)C(=O)C(=O)N2CCN(C)C)cc1` (stereo not drawn) was -11.7%.
With `CC1(C)Cc2c(sc3nc(SCCOc4ccccc4)n(Cc4ccccc4)c(=O)c23)CO1`, the displacement was -10.2%.
The value for `C=CCNC(=O)CN(c1ccc(OC)c(Cl)c1)S(=O)(=O)c1ccccc1` was 3.3%; that for `N/C(=N\OC(=O)c1cccc(Cl)c1)c1ccc(Cl)cc1` was 1.4%.
`CC(=O)NC1=NN(C(C)=O)C(c2ccccc2F)S1` (stereo not drawn): the displacement was -11.6%.
For the molecule `COc1ccc(Cl)cc1NC(=O)CN(Cc1ccccc1)S(=O)(=O)c1ccccc1`, the displacement came to 5.9%.
For `N#C/C(=C/c1ccc(Sc2ccccc2)o1)c1nc2ccccc2[nH]1`, the displacement was found to be 2.3%.
As to `COc1cc(NC(=O)c2ccc(I)cc2)c(OC)cc1Cl`, the displacement came out at 13.1%.
For `CCCCOC(=O)c1ccc(NC(=O)c2cccc(OCCC)c2)cc1`, the displacement was -1.2%.
The same measure for `Cc1cc(C)c2oc(-c3cccc(NC(=O)c4ccccc4C)c3)nc2c1`: 15.5%; for `COc1ccc(O)c(-c2cc(-c3ccc(F)cc3)n[nH]2)c1`: 1.8%.
Consider `COc1cc(OC)c(OC)cc1CN1CCN(C2CCC(C)CC2)CC1` (stereo not drawn), for which the displacement is 1.2%.
The same measure for `COC(=O)C1=C(C)N(CC(C)C)C(=O)/C1=C\c1cccc(OC)c1O`: 12.3%; for `Cc1ccccc1NC(=O)C1C(c2cccs2)C(C#N)=C(SCC(=O)Nc2ccc(Br)cc2)NC1(C)O` (stereo not drawn): -5.9%.
The value for `Cc1ccc(S(=O)(=O)N=C2C=CC(=O)C=C2)c(C)c1` was -7%; that for `O=C(COc1cccc(Cl)c1)NCc1ccco1` was 0%.
For the molecule `COc1cc(NC(=O)/C=C/c2ccc(C(C)C)cc2)c(OC)cc1Cl`, the displacement is -5.4%.
As to `CCOC(=O)COc1cc(C)c(Cl)cc1[N+](=O)[O-]`, the displacement is -1.1%.
Regarding `COc1ccc(S(=O)(=O)N(CC(=O)N=Nc2c(O)[nH]c3ccccc23)c2cc(C)cc(C)c2)cc1OC`, the displacement amounted to 2.5%.
On to `CCC(=O)N1c2ccc3ccccc3c2C2C=CCC2C1c1ccc(F)cc1` (stereo not drawn), for which the displacement stood at 18.7%.
As to `Cc1cc(C)c(N2C(=O)c3ccccc3C2=O)c(C)c1`, the displacement was -2.8%.
Regarding `COc1ccc(OC)c(S(=O)(=O)N2CCC(C)CC2)c1`, the displacement is -0.9%.
The value for `O=C(Nc1ccc2c(c1)OCCO2)c1cccnc1` was 9.3%; that for `CCC(=O)N1CCN(c2ccc(C(C)=O)cc2F)CC1` was -3.4%; that for `Cc1ccc(NC(=O)/C(=C\c2ccccc2)NC(=O)c2ccccc2I)cc1` was -7.5%.
For the molecule `CCOC(=O)C1=NNC(C(=O)c2ccccc2)C1c1ccc(OC)cc1` (stereo not drawn), the displacement is -12.8%.
The value for `O=S(=O)(NCc1ccc2c(c1)OCO2)c1ccc(Br)cc1Br` was -8.7%; that for `O=C(NC(=S)Nc1ccc(N2CCOCC2)cc1)c1ccco1` was 14.6%.
Regarding `O=C(Nc1ccc(O)cc1)c1ccc2c(c1)C(=O)N(c1ccccc1-c1ccccc1)C2=O`, the displacement came out at 3%.
With `CN1C(=O)C(=Cc2ccc(O)c([N+](=O)[O-])c2)C(=O)N(C)C1=O`, the displacement was 12%.
Consider `COc1ccccc1/C=N/N1CCN(Cc2cccc3ccccc23)CC1`, for which the displacement is -10.2%.
Regarding `Cc1ccc(S(=O)(=O)Oc2ccc(Br)cc2C=C2C(=O)NC(=O)NC2=O)cc1`, the displacement was -1%.
For the molecule `CCOc1ccc2nc(SCC(=O)Nc3ccccc3Oc3ccccc3)sc2c1`, the displacement is 1%.
For `O=C(/C=C/c1ccccc1)Nc1ccc(Cl)c([N+](=O)[O-])c1`, the displacement is 10.4%.
